Legend:
streptavidin = target: T1, streptavidin (UniProt P22629 in part, limits assumed); test: ELISA, soluble Fab on streptavidin-coated control well without peptide
T1 construct: control well without peptide
Protocol: (§1) The wells of a microtiter plate were coated with 200 ng streptavidin protein in 100 μL Coating Buffer (0.1 M NaHCO₃, pH 8.6), and then incubated overnight at 4° C. For negative control, the wells were coated with PBS to determine non-specific binding. After shaking out the coating solution, the wells were washed three times with washing buffer (0.1% Tween 20-PBS). To prevent non-specific binding, 200 μL Blocking Buffer (3% BSA-PBS) was adding and incubated for 2 h at 37° C. After shaking out the blocking buffer, the wells were incubated with 50 ng biotinylated target peptide (SEQ ID NO: 420; see Example 10) in 100 μL Blocking Buffer for 1 h at 37° C. The control well was incubated with only 100 μL Blocking Buffer for 1 h at 37° C. After shaking out the biotinylated target peptide or buffer solution, the wells were washed 3 times with the washing buffer (0.1% Tween 20-PBS). Then 100 μL supernatant containing soluble Fab were added and incubated for 2 h at 37° C. Following three washes with washing buffer (0.1% Tween 20-PBS) for 3 times, 100 μL/well HRP conjugate of mouse anti-Flag tag mAb (Sigma A8592, 1:5000) diluted in Blocking Buffer were added and incubated for 1 h at 37° C. After washings, 3,3′,5,5′-tetramethylbenzidine (TMB) (Sigma) were added for 5 to 30 min at room temperature. The reaction was stopped by adding 50 μL/well of 1 M H₂SO₄.

[1] = target: T2, biotinylated CCR8 peptide (human, N-terminal biotin); test: ELISA, soluble Fab on biotinylated CCR8 peptide captured on streptavidin
T2 construct: first 34 residues of human CCR8 plus a C-terminal K; also called biotinylated target peptide
Protocol: as §1

Chain of streptavidin (P22629 37-163 limits assumed): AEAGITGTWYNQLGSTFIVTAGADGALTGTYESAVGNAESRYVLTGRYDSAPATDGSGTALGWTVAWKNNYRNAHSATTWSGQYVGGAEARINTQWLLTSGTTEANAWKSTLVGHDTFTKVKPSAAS

B1: 3-58 (Fab, V domains shown)
VH: [about 100 residues left out here]PVGGDSGFDYWGKGTLVTVSS
VL: LPVLTQPPSASGTPGQRVTISCSGSSSNIGSNYVYWYQQLPGTAPKLLIYSNNQRPSGVPDRFSGSKSGTSASLAISGLQSEDEADYYCAAWDASLNGRVFGGGTKLTVLG
notes: soluble Fab from phage display library huFabL-4, Flag tag
Optical Density (streptavidin): 0.1 OD450 | Optical Density [1]: 2.25 OD450

From patent publication US20260234276A1 (DOMAIN THERAPEUTICS, published 2026)
